According to PubChem BioAssay AID1963576 (National Center for Advancing Translational Sciences (NCATS), 2024):
Among all 46,000 compounds or so, about 60 (0.1%) were called active. About 3% were inconclusive and are not listed. Calls follow the shape of the dose curve; as a rule, active = well fitted inhibition curve with a large enough effect; inconclusive = small, poorly fitted or top-dose-only effect; inactive = no such curve, though single readings can be large or run the other way. Some of the results follow.

Experiment: Primary qHTS assay for Inhibitors of ovarian cancer metastasis using an organotypic tumor microenvironment (TME) model. Also: nearly all actives have a fitted effect of over 65% in size.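 As to activity change, negative = inhibition: plate controls were DMSO wells for no effect and tomatine positive control wells for full effect.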
Settings: SKOV3ip1-GFP adhesion/invasion on 3D omental model, fluorescence; series mostly up to 45.8 µM; activity change, negative = inhibition: at the top concentration
In short: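 Adhesion/invasion was scored as fixed GFP-labeled SKOV3ip1 cell counts (488/509 nm), normalized to DMSO and tomatine controls. Cancer cells in serum-free medium, with four compound doses (0.36-46 umol/L), sat 2 hr at RT then 16 hr at 37 C on a 48 hr fibroblast/mesothelial/ECM culture.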

Activity change, negative = inhibition, inactive:
COC(=O)c1ccc(NC(=O)Cc2coc3cc(C)ccc23)cc1 1.83%
Cc1cc(C)cc(-n2c(SCC(=O)Nc3nnc(C)s3)nc3c([nH]c4ccccc43)c2=O)c1 14%
Cc1coc2c(C)c3oc(=O)c(CC(=O)N4CCCCC4)c(C)c3cc12 -2.92%
NC(=O)c1cccc(-c2cc(Nc3ccc(OC(F)(F)F)cc3)ncn2)c1 -11.3%
Cc1nc2nc(NC(=O)c3cccc(Cl)c3)[nH]n2c(=O)c1Cc1ccccc1 -0.731%
CCC(C(=O)N1CCN(c2cccc(C)c2C)CC1)n1nc(C)c2sc3ccccc3c2c1=O (configuration not stated) 2.28%
CCCNC(=O)C1CCC(Cn2c(=O)c3sccc3n(Cc3cccc(OC)c3)c2=O)CC1 (configuration not stated) -12.2%
COc1ccc(-n2nc(C(=O)N(C)c3cccc(C(F)(F)F)c3)c3c4ccccc4n(C)c3c2=O)cc1 -7.96%
COc1cccc(CNC(=O)CCn2c(=O)c3cccn3c3ccc(F)cc32)c1OC 2.84%
CCCCOc1ccc(CNC(=O)CN2CCSc3ccccc32)cc1 7.13%
O=S(=O)(c1ccc(Br)cc1)c1nc(-c2ccco2)oc1SCc1ccccc1Cl -4.12%
COc1ccc(CCNC(=O)Cn2cc(C(=O)c3ccccc3)c(=O)c3ccc(C)nc32)cc1OC -2.84%
CCOC(=O)c1c(S(=O)(=O)N2CCC(C(=O)Nc3ccccc3OC)CC2)c(C)n(CC)c1C 0.146%
COc1ccc(CCNC(=O)CCc2c(C)nc3c(c(C)nn3-c3ccc(C)c(C)c3)c2C)c(OC)c1OC -2.24%
CCOC(=O)C1CCC(CN(Cc2ccccc2)S(=O)(=O)c2ccc(Cl)cc2)CC1 (configuration not stated) -8.03%
CCOc1ccc(-n2c(-c3ccc(C)cc3)nc3c(cnn3-c3ccccc3)c2=O)cc1 4.92%
Cc1c(Cl)cccc1NS(=O)(=O)c1ccc2[nH]cc(C(=O)NC3CCCC3)c(=O)c2c1 7.56%
CN1C(=O)CC(=O)N(C)c2cc(S(=O)(=O)N(C)Cc3ccccc3)ccc21 4.29%
Cc1ccccc1C(=O)Nc1ccccc1C(=O)OCc1cc(=O)n2ccsc2n1 1.73%
Cc1cc(C)c(Cn2c3ccccc3c3cnn(CC(=O)N4CCCCC4)c(=O)c32)c(C)c1 0.697%
COc1cccc(N2CC(NC(=O)Cc3cccs3)CC2=O)c1 (configuration not stated) -1.43%
Cc1ccc2c(c1)c1c(c(=O)n(-c3ccccc3)c(=O)n1CC(=O)N1CCCC1)n2C -2.49%
Cc1ccc(-n2ncc(C(=O)NCCN3CCN(C)CC3)c2C2CCN(C(=O)OC(C)(C)C)CC2)c(C)c1 -20%
CC(=O)c1cccc(NS(=O)(=O)c2ccc3[nH]c4c(c3c2)CCCCCC4)c1 3.33%
COc1ccc2c(c1)c1c(c(=O)n(-c3ccc(OC)c(OC)c3)c(=O)n1Cc1ccccc1C)n2C -2.39%
Cc1ccc(S(=O)(=O)c2nc(-c3cccs3)oc2N2CCCCC2)cc1 -3.01%
CCc1ccc(-c2cn3c(n2)sc2cc(C(=O)NCCc4ccc(OC)cc4OC)ccc23)cc1 -4.62%
COc1ccccc1NC(=O)Cn1c(=O)n(Cc2ccc3c(c2)OCO3)c(=O)c2oc3ccccc3c21 -5.58%
O=C(c1noc2c1CCCCC2)N1CCN(c2ccc(Cl)cc2)CC1 8.63%
CN(Cc1ccccc1)C(=O)CN1C(=O)CSc2ccc(S(=O)(=O)N3CCOCC3)cc21 4.4%
COc1ccc(OC)c(S(=O)(=O)Nc2cc3c(cc2C)n(C)c(=O)c(=O)n3C)c1 2.19%
Cc1ccc(NC(=O)NCc2ccc3c(c2)CCN3C(=O)c2ccccc2)c(Cl)c1 -23.8%
Cc1ccc(NC(=O)c2nn(C)c3c2CS(=O)(=O)c2ccccc2-3)c(Cl)c1 -7.1%
CCc1c(C)sc2c1CCN(C(=O)Nc1cc(OC)c(OC)c(OC)c1)C2c1ccccc1 (configuration not stated) 3.03%
COc1cccc(C(=O)NC2(C(F)(F)F)C(=O)Nc3c2c(=O)[nH]c(=O)n3-c2ccc(C)cc2)c1 (configuration not stated) -15.8%
O=C(CCCCCn1c(=O)c2sccc2n(CC(=O)Nc2cccc(Cl)c2)c1=O)NCc1ccc2c(c1)OCO2 1.81%
COc1ccc(-c2nc3c(c(SCC(=O)Nc4ccc(C(=O)O)cc4)n2)Cc2ccccc2O3)cc1 -19.1%
Oc1c(C(c2ccccc2)N2CCC3(CC2)OCCO3)sc2nc(-c3ccco3)nn12 (configuration not stated) -3.72%
Cn1c(=O)c2c(-c3ccccc3)n3c(c2n(C)c1=O)C(c1ccccc1[N+](=O)[O-])Nc1ccccc1-3 (configuration not stated) 1.88%
Cn1c(=O)c2c(c3ccccc31)OC(=O)CC2c1ccc(C(F)(F)F)cc1 (configuration not stated) 1.57%

outcome, inactive:
CCn1nnc2cc(C(=O)Nc3cccc(Cl)c3)ccc21
Cc1ccc(CCNC(=O)c2nn(C)c3c2CSc2ccccc2-3)cc1
Cc1ccc(NC(=O)CCn2c(=O)c3cccn3c3ccccc32)c(Cl)c1
CCCCN(CCCC)CCNC(=O)c1cn(C)c2ccc(S(=O)(=O)N3CCOCC3)cc2c1=O
CCn1cc(C(=O)NCCc2ccc(C)cc2)c(=O)c2cc(S(=O)(=O)N(C)C)ccc21
CCOc1ccc(OCC)c(Nc2nc3ccccc3c3nnc(C)n23)c1
COc1ccc(N(C(=O)/C=C\C(=O)Nc2ccc(Cl)cc2)C(C(=O)NCc2ccco2)c2ccc(C)cc2)cc1 (configuration not stated)
Cc1ccc(NC(=O)CN(c2ccccc2)S(=O)(=O)N(C)C)cc1Cl
C#CC(C)(C)NS(=O)(=O)c1cc(-c2nnc(Nc3ccc(C)cc3)c3ccccc23)ccc1C
NS(=O)(=O)c1ccc(CCNC(=O)CCCCCn2c(=O)[nH]c3ccccc3c2=O)cc1
COc1ccc(NC(=O)c2cn(CC(C)C)c(=O)c3cc(OC)c(OC)cc23)cc1Cl
CCc1cccc(NC(=O)CSc2ncc3c(n2)-c2ccc(Cl)cc2N(Cc2ccccc2)S3(=O)=O)c1
CCOC(=O)Cc1ccc(NC(=O)Nc2cccc(OCc3cc(=O)n4cc(C)ccc4n3)c2)cc1
Cc1nc(N2CCOCC2)c2c(C(=O)NCc3cccc(Cl)c3)c(C)oc2n1
CCc1ccc(NC(=O)C(NS(=O)(=O)c2cccs2)C(C)C)cc1 (configuration not stated)
CCCCN(C)CCNC(=O)c1ccc2c(=O)n(CCc3ccccc3)c(=O)[nH]c2c1
O=C(Nc1ccc2oc(-c3cccc4c(Br)cccc34)nc2c1)c1ccc(F)cc1
